Structures are written as SMILES. Among all 43,000 compounds or so, about 200 (0.47%) were called active. Inconclusive results (about 12%) are left out. Calls come from the whole dose curve; as a rule, active = well fitted cell-killing curve with a large enough effect; inconclusive = small, poorly fitted or top-dose-only effect, or effect the other way; inactive = flat fitted curve, though single readings scatter. The list shows a part of the results.
% is set by controls: 0 for no effect and ±100 for the full control effect.

This experiment is described as follows: Cell viability qHTS assay in S16 Pmp22-F2sN cells. Note: nearly all actives have a fitted effect of over 65% in size. The following applies: S16 Pmp22-F2sN Schwann cells (luciferase reporters placed in the Pmp22 gene) viability, CellTiter-Glo, 24 h; series mostly up to 57.5 µM; activity change, negative = cytotoxicity: at the top concentration. The essentials:
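Rat S16 Schwann reporter line, 24 h treatment with library compounds delivered at 23 nL per well. Cell viability by CellTiter-Glo luminescence.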
On the technique in general: qHTS replaces the single test concentration by a dilution series.
Regarding `Cc1ccc(Nc2cc(C)nc3nncn23)c(C)c1`, the “activity change, negative = cytotoxicity” value is inactive: -9.7%. For the molecule `CCOC(=O)c1cccc(NC(=O)[C@H](CSCc2ccccc2)N2Cc3ccccc3C2=O)c1`, the “activity change, negative = cytotoxicity” value is inactive: 13%.

As for `CCCCNC(=O)CSc1nc2cc3c(cc2c(=O)n1CCCCCC(=O)NCc1ccc(OC)cc1)OCO3`, the “activity change, negative = cytotoxicity” value was inactive: 4.12%. In the case of `COc1ccc(CNC(=O)c2cnc3sc(N4CCCC4)nn3c2=O)c(OC)c1`, the “activity change, negative = cytotoxicity” value is inactive: 2.64%. The value for `CCc1ccc(Nc2nnc(-n3nc(C)cc3C)c3ccccc23)cc1` was inactive: -0.109%.

Turning to `COc1ccc(C2CC(=O)N(CC(=O)Nc3ccc(C)c(Cl)c3)c3ccccc3S2)cc1OC` (stereo not drawn), the “activity change, negative = cytotoxicity” value is inactive: -0.468%. Consider `CCOC(=O)C1CCCN(S(=O)(=O)c2ccc3c(c2)oc(=O)n3C)C1` (stereo not drawn), for which the “activity change, negative = cytotoxicity” value is inactive: -8.62%.

Turning to `COc1ccc(N(Cc2cccs2)C(=O)Nc2cccc(Cl)c2)cc1`, the “activity change, negative = cytotoxicity” value was inactive: -12.3%.

With `Cc1ccccc1NC(=O)CCN1C(=O)c2ccccc2Sc2ncccc21`, the “activity change, negative = cytotoxicity” value was inactive: 3.65%. The value for `COc1cccc(NC(=O)CCc2c(C)nc3ncnn3c2C)c1` was inactive: 6.85%; that for `Cc1ccccc1C(=O)NCCc1sc(-c2ccc(Cl)cc2)nc1C` was inactive: 13.2%; that for `COc1ccc(CNC(=O)Cc2csc3nc(-c4ccc(F)cc4)cn23)cc1` was inactive: -1.87%. In the case of `CCCc1cnc2c(c1SCc1cccc(F)c1)c(=O)n(C)c(=O)n2C`, the “activity change, negative = cytotoxicity” value is inactive: 6.24%. Consider `CCCc1noc(-c2ccc(NCc3ccc(C)cc3)c([N+](=O)[O-])c2)n1`, for which the “activity change, negative = cytotoxicity” value was inactive: 2.83%. Take `COc1ccc(-c2cn3c(n2)sc2cc(C(=O)NCc4cccc(F)c4)ccc23)cc1`: the “activity change, negative = cytotoxicity” value was inactive: 10.2%. `Cc1ccc(NC(=O)Cn2c(=O)n(Cc3ccc4c(c3)OCO4)c(=O)c3ccccc32)cc1`: the “activity change, negative = cytotoxicity” value was inactive: 23.4%. The value for `Cc1ccccc1-c1cc2nccc(-c3cc(Cl)ccc3O)n2n1` was inactive: -5.09%; that for `Cc1ccc(NC(=O)CN2C(=O)COc3ccc(S(=O)(=O)NC4CCCC4)cc32)c(Cl)c1` was inactive: -1.03%; that for `Cc1nc(C)c(CCNS(=O)(=O)c2ccc(F)cc2)s1` was inactive: 2.39%.

`COc1ccccc1CN1CCNC(=O)C1=O`: the “activity change, negative = cytotoxicity” value was inactive: 17.6%. For the molecule `COc1ccc(N(Cc2nnc3n2CCCCC3)C(=O)Nc2cccc(C)c2)cc1Cl`, the “activity change, negative = cytotoxicity” value was inactive: 8%. The value for `O=C(Cn1ncc2c3ccccc3n(Cc3ccccc3)c2c1=O)NC1CCCCCC1` was inactive: 14.9%; that for `COc1ccc(-c2coc3c2c(C)cc2oc(=O)c(CC(=O)O)c(C)c23)cc1` was inactive: -19.1%. Under `COc1ccccc1NC(=O)Cn1c(=O)n(-c2cccc(C)c2)c(=O)c2c1c1cc(C)ccc1n2C` stands inactive: 18%. The value for `COc1ccc(NC(=O)C(CC(C)C)NC(=O)C2CCCCC2)cc1` (stereo not drawn) was inactive: -1.57%; that for `COc1cc2c(cc1OC)C(COc1ccc(F)cc1)N(C(=O)c1cccc(F)c1)CC2` (stereo not drawn) was inactive: -1.45%. In the case of `CN(C)CCCNC(=O)C(=O)NCC(c1ccc2c(c1)OCO2)N1CCOCC1` (stereo not drawn), the “activity change, negative = cytotoxicity” value is inactive: 3.3%. The value for `Cc1nc2nc(SCC(=O)Nc3ccccc3Cl)nn2c(C)c1Cc1ccccc1` was inactive: 6.88%; that for `O=C(c1ccc(Br)cc1)N(Cc1cccs1)c1ccc(F)cc1` was inactive: 20.7%. Regarding `CN1CCN(C(=O)Cn2ncc3c4ccccc4n(Cc4ccc(F)cc4)c3c2=O)CC1`, the “activity change, negative = cytotoxicity” value was inactive: -0.197%.

On to `Cc1cc(C)c(S(=O)(=O)Nc2ccc3oc4c(c3c2)C(=O)CC(C)(C)C4)cc1C`, for which the “activity change, negative = cytotoxicity” value is inactive: 2.38%. In the case of `COc1ccc(-c2cnc(C)o2)cc1S(=O)(=O)Nc1ccc(F)cc1F`, the “activity change, negative = cytotoxicity” value was inactive: -0.656%. Under `COc1cc(OC)c(NC(=O)c2cn(C3CCCC3)c(=O)c3c2c2ccccc2n3C)cc1Cl` stands inactive: 16.5%; under `COc1cccc(C(=O)Nc2ccccc2OCc2cc(=O)n3ccccc3n2)c1`, inactive: 6.44%. The value for `Cc1cc(N(CCO)Cc2ccccc2)n2nc(-c3ccc(C(C)(C)C)cc3)nc2n1` was inactive: -6.01%; that for `Cc1cccn2c(=O)c(/C=C(\C#N)c3nc4ccccc4s3)c(Oc3ccc(F)cc3)nc12` was inactive: -6.17%; that for `CCOCCn1ccc2c(OCC(=O)Nc3cccc([N+](=O)[O-])c3)cccc2c1=O` was inactive: 2.62%. The value for `CCOc1cc(CNC(=O)C(NS(=O)(=O)c2cccs2)C(C)C)cc(OCC)c1OCC` (stereo not drawn) was inactive: 3.49%; that for `O=C(Cn1c(SCc2cccc(F)c2)nc2ccncc21)Nc1ccc(Cl)cc1F` was inactive: -11.1%; that for `COc1ccc(NCc2cccn2-c2nnc(N3CCOCC3)s2)c(OC)c1` was inactive: 2.57%. Turning to `O=C(NNc1ncnc2c1cnn2-c1ccccc1)c1ccccc1`, the “activity change, negative = cytotoxicity” value is inactive: -6.66%. Under `COCCNC(=O)Cn1c(=O)n(-c2ccc(C)c(C)c2)c(=O)c2c3c(sc21)CCCCC3` stands inactive: 8.98%; under `CCOC(=O)c1cccc(NC(=O)C2CCN(c3nnc(C)c4c(C)n(-c5ccccc5)nc34)CC2)c1`, inactive: 18.9%.

With `COc1ccc(NC(=O)CN2CCN(S(=O)(=O)c3ccc(Br)cc3)CC2)cc1`, the “activity change, negative = cytotoxicity” value is inactive: 0.974%.

`COc1ccc(Cl)cc1NC(=O)C(C)N1Cc2ccccc2C1=O` (stereo not drawn): the “activity change, negative = cytotoxicity” value is inactive: 2.8%. Take `Cc1ccc(C(CC(=O)Nc2ccc(C)cc2C)N2Cc3ccccc3C2=O)cc1` (stereo not drawn): the “activity change, negative = cytotoxicity” value was inactive: -18.8%.

Turning to `CCOC(=O)c1c(NC(C)=O)c2c3c(sc2n1Cc1cccc(Cl)c1)CCCC3`, the “activity change, negative = cytotoxicity” value was inactive: 17.9%. The value for `COc1ccc(C(=O)Nc2ccc3nc(N4CCCCC4)cc(C)c3c2)c(OC)c1` was inactive: 2.39%. Under `Cc1cn2c(=O)cc(COc3cccc(NC(=O)c4cccc(F)c4)c3)nc2s1` stands inactive: 9.74%.

As for `COc1ccc(N2CCN(S(=O)(=O)CCNC(=O)Cc3ccc(-c4ccccc4)cc3)CC2)cc1`, the “activity change, negative = cytotoxicity” value was inactive: 10.6%. `CCOC(=O)c1c(-c2ccccc2)csc1NC(=O)c1cc(-c2cccc(OC)c2)on1`: the “activity change, negative = cytotoxicity” value is inactive: 9.06%. Under `Cc1ccc(Cl)cc1N1CCN(C(=O)Cn2nc(C)n3c(cc4sccc43)c2=O)CC1` stands inactive: 6.31%; under `Cc1cc(C)cc(C(=O)Nc2c3c(nn2-c2ccccc2C)CS(=O)(=O)C3)c1`, inactive: -3.8%. Under `CCCN(C(=O)CCn1cnc2onc(-c3ccc(F)cc3)c2c1=O)c1ccccc1C` stands inactive: -17.7%; under `Cc1cc(C)cc(NC(=O)Cn2nnc(C(=O)NCc3ccco3)c2N)c1`, inactive: -2.03%; under `O=C(CN1C(=O)COc2ccc(S(=O)(=O)N3CCCCCC3)cc21)N1CCN(c2ccccc2)CC1`, inactive: 10.4%. Under `CCC(=O)N1c2nc(C(C)C)nn2C2(CCCCC2)[C@@H]2CCCC[C@@H]21` stands inactive: 0.68%; under `O=C(Cn1nc2c(cc1=O)CCCC2)NCc1ccccc1Cl`, inactive: -3.19%; under `Cc1ccc(C(=O)Nc2nnc(SCc3cc(=O)n4ccc(C)cc4n3)s2)cc1`, inactive: 12.5%. Consider `CCCCN(C)c1ncnc2c1cnn2-c1cccc(Cl)c1`, for which the “activity change, negative = cytotoxicity” value was inactive: 16.1%.

With `N#Cc1ccccc1NC(=O)C(=O)NCC(c1cccnc1)N1CCc2ccccc2C1` (stereo not drawn), the “activity change, negative = cytotoxicity” value is inactive: -8.17%. The value for `CCc1ccc(S(=O)(=O)c2nnn3c2nc(Nc2cccc(C)c2C)c2sccc23)cc1` was inactive: -17.8%; that for `O=C(NCc1ccccc1Br)c1ccc(-n2cnc3cccnc32)cc1` was inactive: -13.6%. Under `COc1cc(-c2nnc(SCC(=O)N3CCCc4ccccc43)o2)cc(OC)c1OC` stands inactive: -14.7%. With `COc1ccc(N(CC(=O)Nc2ccc(Cl)cc2C)S(=O)(=O)c2ccccc2)c(OC)c1`, the “activity change, negative = cytotoxicity” value was inactive: -21.5%. For the molecule `Cc1cc(SCC(=O)NCc2ccccc2)nc(=O)[nH]1`, the “activity change, negative = cytotoxicity” value is inactive: 7.07%.

In the case of `COc1cccc(CNc2ccc3c(c2)ncn3C)c1OC`, the “activity change, negative = cytotoxicity” value is inactive: 18.3%. Under `CCC(=O)N1CCc2cc(S(=O)(=O)NCCC(=O)Nc3cccc(C)c3C)ccc21` stands inactive: 6.18%. Under `CCOc1ccccc1NC(=O)C1CCCN(S(=O)(=O)c2ccc3c(c2)CCCN3C(C)=O)C1` (stereo not drawn) stands inactive: -28.4%; under `Cc1cccc(-c2cc(NC(=O)COc3ccccc3F)n(-c3ccccc3)n2)c1`, inactive: -8.24%. Under `Cc1nnsc1C(=O)Oc1ccccc1Cl` stands inactive: 6.65%; under `Cc1ccccc1C(=O)Nc1nnc(S(=O)(=O)N2CCCc3ccccc32)s1`, inactive: -4.13%.

`COc1ccc(C(=O)N2CCC(C(=O)Nc3ccc(OC)cc3OC)CC2)cc1`: the “activity change, negative = cytotoxicity” value is inactive: 7.06%.

With `Cc1ccc(-n2c(=O)c3sccc3n(Cc3cc(=O)n4ccccc4n3)c2=O)cc1`, the “activity change, negative = cytotoxicity” value was inactive: -0.865%. The value for `CCN(CC)CCOC(=O)c1ccc(NC(=O)CCn2c(=O)oc3ccccc32)cc1` was inactive: 26.8%; that for `CSc1ccccc1NC(=O)CCS(=O)(=O)c1nc(-c2cccs2)cc(C(F)(F)F)n1` was inactive: 11.5%; that for `Cc1ccc(-c2cn3c4c(=O)n(C)c(=O)n(C)c4nc3n2-c2cccc(Cl)c2)cc1` was inactive: -1.24%. Under `CCn1c(C(=O)Nc2cc(C)cc(C)c2)cc2sc(Cl)cc21` stands inactive: -1.4%; under `COc1ccc(C(=O)N=c2sc3cc(Cl)ccc3n2C)cc1`, inactive: 8.72%; under `Cc1ccc(NC(=O)CSc2nnc(-c3cc4occc4n3C)n2-c2ccccc2C)cc1F`, inactive: 2.56%. For `COC(=O)c1c(-c2cccs2)csc1NC(=O)c1cc(OC)cc(OC)c1`, the “activity change, negative = cytotoxicity” value was inactive: 1.53%. Under `CCN(CC)c1ccc(NC(=O)Cn2c(C)c3cnn(-c4ccccc4)c(=O)c3c2C)c(C)c1` stands inactive: 5.09%; under `Cc1cc(Cl)ccc1NC(=O)CCS(=O)(=O)c1cc2c(cc1C)NC(=O)CO2`, inactive: 9.93%. For `Clc1cccc(-n2ncc3c(NCCCc4ccccc4)ncnc32)c1`, the “activity change, negative = cytotoxicity” value was inactive: -7.09%. For `Cc1cc(C)cc(NC(=O)C(Cc2ccccc2)N2Cc3ccccc3C2=O)c1` (stereo not drawn), the “activity change, negative = cytotoxicity” value is inactive: 1.37%. As to `Cc1ccc(CNC(=O)C(CC(C)C)N2Cc3ccccc3C2=O)cc1` (stereo not drawn), the “activity change, negative = cytotoxicity” value was inactive: -10.6%. The value for `O=C(NCCSc1c(-c2ccc(Br)cc2)[nH]c2ccccc12)c1ccc(S(=O)(=O)N2CCOCC2)cc1` was inactive: -19%; that for `CCC(=O)Nc1cc(C(=O)NCc2ccc(C)cc2)ccc1S(=O)(=O)c1ccc(C)cc1` was inactive: -2.42%; that for `Cc1ccc(CCNC(=O)c2sc3ncccc3c2-n2cccc2)cc1` was inactive: -0.991%. The value for `COc1cc(NC(=O)c2nc3cc(C)c(C)cc3n(C)c2=O)cc(OC)c1OC` was inactive: 6.4%. Consider `COc1cccc(NC(=O)CSc2nc(O)c(C/C=C/c3ccccc3)c(=O)[nH]2)c1`, for which the “activity change, negative = cytotoxicity” value is inactive: -1.06%. As for `COc1ccc(N2CCN(S(=O)(=O)c3ccc(-c4cc(C(F)(F)F)on4)s3)CC2)cc1`, the “activity change, negative = cytotoxicity” value was inactive: 6.54%. With `CC1CCC(NC(=O)C2(C)Cc3ccccc3C(=O)N2Cc2ccccc2Cl)CC1` (stereo not drawn), the “activity change, negative = cytotoxicity” value was inactive: 24.7%. The value for `CCc1cccc(C)c1Nc1c(-c2ccc(N(C)C)cc2)nc2ncccn12` was inactive: -18.8%. Consider `Cc1cccc(OCc2ccc(-c3nc(C#N)c(N4CCN(c5ccccc5)CC4)o3)o2)c1`, for which the “activity change, negative = cytotoxicity” value is inactive: 14.1%. Under `Cc1cc(C)c2oc(C(=O)Nc3c(C(=O)c4ccc(F)cc4)oc4ccccc34)cc(=O)c2c1` stands inactive: 4.16%. Under `CCCCn1c(Oc2cccc(C(=O)OC)c2)nc2c1c(=O)n(C)c(=O)n2C` stands inactive: -17.4%; under `CCOc1ccc(NC(=O)Cn2nnc(C(=O)OC)c2C(=O)OC)cc1`, inactive: 2.82%.
